The whole screen tested about 110,000 compounds, of which about 230 (0.21%) showed an effect of 50% or more. Some of the results follow.

The values below come from PMC6919601, “Identification of Plasmodium dipeptidyl aminopeptidase allosteric inhibitors by high throughput screening” (PLoS ONE, 2019).
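Note: 30 min substrate incubation versus DMSO and 10 µM JCP410 controls.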

The target of the experiment is DPAP1 (Plasmodium falciparum, UniProt Q8IIJ9). Description: primary screen, percent inhibition; read by cleavage of a fluorogenic dipeptide substrate; higher = more effect of the substance. More on the design: species or system P. falciparum D10 trophozoite lysates; single well.
Sequence of DPAP1 (Q8IIJ9 whole entry, looked up): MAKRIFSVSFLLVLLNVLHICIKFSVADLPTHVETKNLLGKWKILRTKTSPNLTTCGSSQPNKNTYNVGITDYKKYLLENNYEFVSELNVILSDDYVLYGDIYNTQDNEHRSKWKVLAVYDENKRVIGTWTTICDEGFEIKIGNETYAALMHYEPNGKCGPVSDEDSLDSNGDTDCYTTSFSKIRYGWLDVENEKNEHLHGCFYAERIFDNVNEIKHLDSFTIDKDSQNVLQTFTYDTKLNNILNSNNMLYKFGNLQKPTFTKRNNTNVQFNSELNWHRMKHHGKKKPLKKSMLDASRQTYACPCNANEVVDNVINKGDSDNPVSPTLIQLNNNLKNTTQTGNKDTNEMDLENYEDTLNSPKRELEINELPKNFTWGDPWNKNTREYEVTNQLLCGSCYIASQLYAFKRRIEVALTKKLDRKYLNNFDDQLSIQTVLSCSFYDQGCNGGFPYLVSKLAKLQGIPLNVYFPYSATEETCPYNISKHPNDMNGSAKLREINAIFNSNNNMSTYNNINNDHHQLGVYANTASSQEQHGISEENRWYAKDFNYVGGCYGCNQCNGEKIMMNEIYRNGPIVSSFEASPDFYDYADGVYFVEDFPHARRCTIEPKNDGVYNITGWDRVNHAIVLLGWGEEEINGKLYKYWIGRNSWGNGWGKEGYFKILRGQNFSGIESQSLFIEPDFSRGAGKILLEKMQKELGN
Regarding `CC1CCCC(N2CCC(C(N)=O)CC2)C1` (centres unmarked), the “% Inhibition @ 10 uM” value was determined as 5.03%.
In the case of `Cn1c(=O)c2c(nc(CN3CCN(Cc4ccccc4)CC3)n2Cc2ccccc2Cl)n(C)c1=O` it was 4.51%; in that of `N#Cc1c(SCC(N)=O)nsc1SCc1ccc(Cl)cc1`, 5.54%; in that of `O=C(c1cccc(C(=O)N2CCc3ccccc32)n1)N1CCc2ccccc21`, -0.132%.
Next, `CC1(C)CC(NC(=O)c2ccc3ccccc3c2)CC(C)(C)N1`: 1.42%; `COc1ccc2c(C)c(CC(=O)NCc3ccco3)c(=O)oc2c1C`: -0.808%; `COc1ccccc1-c1nc2s/c(=C\c3cccc(Br)c3)c(=O)n2n1`: -4.85%.
Next, `COc1cc(C(=O)Nc2cc(C)ccc2C)cc(OC)c1OC`: -2.74%.
As to `NC(=S)n1nc(-c2ccccc2)cc1O`, the “% Inhibition @ 10 uM” value is given as -8.37%.
Next, `O=C(O)Cn1ncn2c(cc3cc(F)ccc32)c1=O`: 3.24%; `CCOC(=O)c1ccc2[nH]c3c(c2c1)CN(C)CC3`: 1.88%; `COc1ccc(CN2CCN(S(C)(=O)=O)CC2)cc1Br`: 2.26%.
In the case of `Cc1ccccc1-c1nc(CS(=O)(=O)CC(=O)NCCCN2CCCC2=O)c(C)o1` it was -7.53%.
Next, `Cc1cc(CN2CCN(C/C=C/c3ccccc3)CC2)c(C)n1-c1cccc(C(F)(F)F)c1`: -0.0648%.
With `N#Cc1ncccc1CCc1cccc(Cl)c1`, the “% Inhibition @ 10 uM” value came to 0.983%.
Next, `O=C(/C=C/c1ccco1)c1ccc(C(=O)/C=C/c2ccco2)cc1`: -0.268%; `CCC(C)NC(=O)c1coc2nc3ccccc3nc12` (centres unmarked): -0.971%; `O=C(Nc1cc(C(F)(F)F)ccc1F)C12CC3CC(C1)CC(n1cnc(Cl)n1)(C3)C2`: 2.43%.
Next, `O=C(Cn1c2ccccc2c2cnnc(O)c21)NCc1ccccc1Cl`: 1.38%; `CCCOc1ccc(Cc2nn3c(=O)/c(=C\c4cccc(OC)c4OC)sc3nc2=O)cc1`: 1.23%.
Next, `Cc1ccc(/C=C(\NC(=O)c2ccccc2)C(=O)NC2CCCC2)o1`: 4.33%.
As to `Cc1ccc(S(=O)(=O)N2CCN(C(=O)c3cccnc3)CC2)cc1`, the “% Inhibition @ 10 uM” value is -3.4%.
Next, `CN(C)CC1=C(c2ccccc2)Oc2ccccc2C1c1ccccc1` (centres unmarked): -0.902%; `O=C(O)C1(c2ccc3c(c2)OCCO3)CCCC1`: -2.63%.
In the case of `CN(c1cccc(NC(=O)CN(c2cccc(F)c2)S(C)(=O)=O)c1)S(C)(=O)=O` it was -12.1%; in that of `COc1ccc(OC)c(NC(=O)c2cc3ccccc3cc2O)c1`, 7.59%; in that of `COc1ccc(C(=O)/C=C2/Sc3ccccc3N2C)cc1`, 1.96%.
Next, `COCCNc1nc2c(S(=O)(=O)c3ccc(Br)cc3)nnn2c2ccsc12`: -6.51%; `COc1cc(C=C2C(=O)NC(=O)NC2=O)ccc1OS(=O)(=O)c1ccccc1`: -1.93%; `Cc1ccc(S(=O)(=O)Nc2cccnc2)cc1`: 2.24%.
Turning to `COc1cccc(CNCCCSc2nnnn2-c2ccccc2)c1`, the “% Inhibition @ 10 uM” value was -1.11%.
In the case of `NC(=O)c1c(N)c(C(=O)c2ccc(Cl)cc2)n2ccccc12` it was -3.75%; in that of `O=C(COc1ccccc1)NC1CCCCC1NC(=O)COc1ccccc1` (centres unmarked), -2.75%; in that of `N=c1n(CCO)c2ccccc2n1Cc1ccccc1`, 5.04%.
In the case of `CCOC(=O)N1CCN(c2cnnc3c(Cl)cccc23)CC1` it was -0.527%.
For `Cc1ccc(NC=C2C(=O)N(C)C(=O)N(C)C2=O)cc1`, the “% Inhibition @ 10 uM” value came to 2.36%.
Next, `CC(CCN1CCN(C/C=C/c2ccccc2)CC1)c1ccccc1` (centres unmarked): -4.95%; `CN(CCCNS(=O)(=O)c1csc(C(N)=O)c1)C1CCCCC1`: -1.77%; `CC1C(c2ccccc2)N(C)CCC1(O)c1ccccc1` (centres unmarked): -4.35%.
Next, `COC(=O)C1=C(C)OC(N)=C(C#N)C1c1ccccc1Cl` (centres unmarked): 0.467%.
Regarding `N#CCNC(=O)C(Cc1ccc2occc2c1)NC(=O)c1ccc(N2CCOCC2)cc1` (centres unmarked), the “% Inhibition @ 10 uM” value turned out to be 0.173%.
As to `CSc1ccc(C2NC(=O)c3c(sc4c3CCN(C)C4)N2)cc1` (centres unmarked), the “% Inhibition @ 10 uM” value was 4.39%.
In the case of `COc1ccc(CCNC(=O)Cn2ncn3nc(-c4cccs4)cc3c2=O)cc1OC` it was 2.07%.
Next, `CC(Cc1c[nH]c2ccccc12)N1C(=O)c2ccccc2C1=O` (centres unmarked): -1.76%.
Take `Cc1nc2ccccc2n1CCN1CCCCC1`: the “% Inhibition @ 10 uM” value turned out to be 1.13%.
In the case of `N#CC1=C(N)Oc2c(c(=O)oc3ccccc23)C1c1cccc(O)c1` (centres unmarked) it was 1.7%; in that of `CCCCOc1ccccc1-c1cc(C(=O)OC)[nH]n1`, 3.11%; in that of `O=C(NCc1ccccn1)c1cccc2ccccc12`, 5.31%.
Regarding `O=C(Nc1ccc(Cl)cc1)c1ccc(N2C(=O)CCC2=O)cc1`, the “% Inhibition @ 10 uM” value is given as -4.82%.
In the case of `COCCCN1C(=O)C(O)=C(C(=O)c2ccc(Cl)cc2)C1c1ccc(Cl)c(Cl)c1` (centres unmarked) it was -3.45%; in that of `Clc1ccc(-c2noc3ncnc(N(Cc4ccco4)CC4CCCO4)c23)cc1` (centres unmarked), 18.5%.
With `CCOc1ccc2c(c1)[N+](C)(C)C(C)(C)C=C2C`, the “% Inhibition @ 10 uM” value turned out to be 1.63%.
In the case of `COc1ccc(CC(=O)NC2CCCCC2NC(=O)Cc2ccc(OC)cc2)cc1` (centres unmarked) it was 0.145%.
In the case of `CCC(C)n1c(=O)c2sccc2n2c(CCCC(=O)NCCc3c[nH]c4ccccc34)nnc12` (centres unmarked) it was -5.05%.
In the case of `COc1cccc(C(=O)Nc2c3c(nn2-c2cccc(Cl)c2)CS(=O)(=O)C3)c1` it was 6.04%; in that of `Nc1ccccc1/C=C1/CCCc2cc3ccccc3nc21`, 3.15%; in that of `COc1ccc(C2=C(C)C(c3cccs3)c3ccccc3O2)cc1` (centres unmarked), 4.18%.
Consider `CCn1cc(C(=O)O)c(=O)c2cc(OC)ccc21`, for which the “% Inhibition @ 10 uM” value is recorded as -8.76%.
In the case of `CSc1nsc(SC)c1C(=O)N1CCN(S(=O)(=O)c2ccc(C)cc2)C1C(C)C` (centres unmarked) it was 8.01%.
As to `Cc1ccccc1Cn1nc(C)c(NC(=O)c2cc3nc(C(F)F)cc(C(F)F)n3n2)c1C`, the “% Inhibition @ 10 uM” value is on record as -1.42%.
In the case of `COc1cc(/C=C2/C(=N)N3OC(C)=CC3=NC2=O)ccc1OCCCOc1ccc(C)cc1C` it was -1.43%.
Next, `O=C(c1cc(-c2ccc(O)cc2)on1)N1CCN(Cc2ccccc2)CC1`: 6.87%; `CCCSCCCn1cnc2c3ccccc3nc-2c1O`: 3.24%.
In the case of `OC1(c2ccc(Br)cc2)CCN(Cc2c(F)cccc2F)CC1` it was -5.65%; in that of `Cc1ccc(C(=O)O/N=C2\Sc3ccccc3C2=O)cc1`, -0.339%.
Take `Cc1ccccc1OCC(=O)N1CCc2ccccc21`: the “% Inhibition @ 10 uM” value is -1.38%.
In the case of `CCOc1ccc(NC(=O)CN(c2ccc(Cl)cc2)S(C)(=O)=O)cc1` it was -1.43%.
`CC(C)C[C@H](NC(=O)OCc1ccc(-c2ccccc2)cc1)C(=O)NCC#N`: the “% Inhibition @ 10 uM” value is recorded as 0.174%.
In the case of `O=c1cc2nc(-c3ccccc3)nc(SCCCOc3ccccc3)n2[nH]1` it was -5.72%.
For `CC1SC2(C(=O)Nc3ccccc32)N(c2cccc(F)c2)C1=O` (centres unmarked), the “% Inhibition @ 10 uM” value came to 2.09%.
Next, `CC(C)CNC(=O)c1ccc(C2SCC(=O)N2CCc2ccccc2)cc1` (centres unmarked): 0.475%.
Next, `CC1CCCCN1CCNC(=O)C1CCCN(c2ncnc3c2nc2n3CCCCC2)C1` (centres unmarked): -1.96%; `CCN(C(C)=O)C1=C(O)C(=O)c2ccccc2C1=O`: -0.597%; `Cc1ccn2c(=O)c(C(=O)NCc3ccccc3)cnc2c1`: 0.0579%.
Next, `Cc1cc(C)c2c(-n3cccc3)c(C(=O)N3CCc4ccccc4C3)sc2n1`: 0.623%; `CC(C)C(NS(=O)(=O)c1cccs1)C(=O)NC1CCCc2ccccc21` (centres unmarked): 2.65%; `CC(C)NC(=O)CN(c1ccccc1Cl)S(=O)(=O)c1ccccc1`: -1.61%.
On to `COc1ccc(C(C)=O)cc1N1C(=O)C2C3C=CC(CO)(O3)C2C1=O` (centres unmarked), for which the “% Inhibition @ 10 uM” value is given as -2.03%.
Regarding `COc1ccc2nc(SCCc3ccccc3)nc(C)c2c1`, the “% Inhibition @ 10 uM” value is listed as 2.26%.
Turning to `O=C(O)CCNc1c(C(=O)O)cnc2ccccc12`, the “% Inhibition @ 10 uM” value is -7.35%.
For `Cc1cnn(-c2nc(-c3ccccc3)cc(-c3ccc(F)cc3)n2)c1`, the “% Inhibition @ 10 uM” value is listed as 2.65%.
Consider `CCN1CCc2nc3sc(C(=O)N4CCc5ccccc5C4)c(N)c3cc2C1`, for which the “% Inhibition @ 10 uM” value was -0.222%.
Next, `CCOCCCN(Cc1ccco1)C(=O)c1cc2c(s1)-c1ccccc1S(=O)(=O)C2`: -2.45%; `CSc1ccc(CCNC(=O)C2CCCN(S(=O)(=O)N3CCC4(CC3)OCCO4)C2)cc1` (centres unmarked): -7.21%; `O=C(Cc1ccc(-c2ccccc2)cc1)Nc1ccc(F)cc1F`: -6.01%.
In the case of `O=[N+]([O-])c1ccc(S(=O)(=O)N2CCc3ccccc3C2)cc1` it was -0.351%; in that of `Cc1nc(NC(=O)c2ccc(Cl)c(Cl)c2)sc1C(=O)N(C)C`, 3.9%.
In the case of `Cc1ccc(N2CCN(S(=O)(=O)N3CCCCC3)CC2)cc1Cl` it was -3.25%; in that of `Cc1ccccc1C(O)(Cc1ccccc1)C1CN2CCC1CC2` (centres unmarked), -2.99%.
Regarding `Cc1ccc(OCC(=O)Nc2nccs2)c(Br)c1`, the “% Inhibition @ 10 uM” value worked out at 4.35%.
In the case of `CCNC(=O)c1snc(Nc2ncc(C)o2)c1N` it was -11.4%; in that of `CN(C(=O)c1ccoc1)c1ccc2ccccc2c1`, -1.99%.
Consider `Nc1ccc(Oc2ccc(Cl)cc2)cc1`, for which the “% Inhibition @ 10 uM” value is listed as -9.91%.
In the case of `CC1CCN(S(=O)(=O)c2ccc(NS(=O)(=O)c3ccc(Cl)cc3)cc2)CC1` it was 10.5%.
As for `CC(=O)Nc1ccc(NC(=O)c2noc3c2COc2ccc(C)cc2-3)cn1`, the “% Inhibition @ 10 uM” value was -5.92%.
Next, `CCC(=O)Nc1sc2c(c1C(=O)Nc1ccccc1Cl)CCCC2`: 29.5%; `CC(C)(C)C1CCC(N2CCCC(CO)C2)CC1` (centres unmarked): -1.21%.
Regarding `CC(C)OCCCNC(=O)C1c2ccccc2C(=O)N(C)C1c1cccs1` (centres unmarked), the “% Inhibition @ 10 uM” value is given as -7.1%.
With `COc1cc(CNC23CC4CC(C)(CC(C)(C4)C2)C3)ccc1OCC(=O)NC(C)(C)C`, the “% Inhibition @ 10 uM” value is on record as -7.9%.
In the case of `CCOCCCNC(=O)c1cc(-c2cccnc2)nc2ccc(S(=O)(=O)N3CCC(C)CC3)cc12` it was 0.718%; in that of `COc1cccc(S(=O)(=O)NCC(=O)N2CCCCC2C)c1` (centres unmarked), -0.95%.
